Measured values: article PMC12820563
The other results are listed elsewhere or left out. The list includes weakly bound sequences.

The sequences below were run against T1, MBP-FoxP3dN (UniProt Q99JB6) (assay: PD-seq (MBP pull-down with sequencing)). Settings: 20 mM Tris-HCl pH 7.5, 100 mM NaCl, 1.5 mM MgCl2, 0.4 uM protein, 0.1 uM dsDNA library, 30 min, room temperature, amylose pull-down; high values mean tight binding; double strand, one strand shown.
T1 sequence: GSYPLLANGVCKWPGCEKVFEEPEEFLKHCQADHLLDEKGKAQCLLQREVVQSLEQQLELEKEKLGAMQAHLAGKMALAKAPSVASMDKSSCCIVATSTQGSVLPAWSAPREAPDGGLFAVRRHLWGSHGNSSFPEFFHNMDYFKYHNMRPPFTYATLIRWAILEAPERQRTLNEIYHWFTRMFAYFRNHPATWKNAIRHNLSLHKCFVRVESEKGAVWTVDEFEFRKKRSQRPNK

| Sequence | binding signal (RPM ratio (pull-down/input)) |
| --- | --- |
| GATGATTGTTCTCCCAGCTGATGAATTTAGCTTGTCGAGTAAACAAATTTTCCTAATCTTTCTGTTCAAGCGCCATCTAC | 3.43 |
| GATGATTGTTCTCCCAGCTGATGAATTTTTGCAATCGAGTAAACAAATTTTCCTAATCTTTCTGTTCAAGCGCCATCTAC | 3.95 |
| GATGATTGTTCTCCCAGCTGATGAATTACTTCAGTCGAGTAAACAAATTTTCCTAATCTTTCTGTTCAAGCGCCATCTAC | 0.207 |
| GATGATTGTTCTCCCAGCTGATGAATTCTATACGTCGAGTAAACAAATTTTCCTAATCTTTCTGTTCAAGCGCCATCTAC | 0.455 |
| GATGATTGTTCTCCCAGCTGATGAATTTACTAGGTCGAGTAAACAAATTTTCCTAATCTTTCTGTTCAAGCGCCATCTAC | 0.384 |
| GATGATTGTTCTCCCAGCTGATGAATTTTCCAGATCGAGTAAACAAATTTTCCTAATCTTTCTGTTCAAGCGCCATCTAC | 0.155 |
| GATGATTGTTCTCCCAGCTGATGAATTGCCTCTTTCGAGTAAACAAATTTTCCTAATCTTTCTGTTCAAGCGCCATCTAC | 1.29 |
| GATGATTGTTCTCCCAGCTGATGAATTACAGGACTCGAGTAAACAAATTTTCCTAATCTTTCTGTTCAAGCGCCATCTAC | 0.297 |
| GATGATTGTTCTCCCAGCTGATGAATTCAATTTATCGAGTAAACAAATTTTCCTAATCTTTCTGTTCAAGCGCCATCTAC | 1.59 |
| GATGATTGTTCTCCCAGCTGATGAATTCGTATGTTCGAGTAAACAAATTTTCCTAATCTTTCTGTTCAAGCGCCATCTAC | 2.69 |
| GATGATTGTTCTCCCAGCTGATGAATTTGCACAATCGAGTAAACAAATTTTCCTAATCTTTCTGTTCAAGCGCCATCTAC | 0.76 |
| GATGATTGTTCTCCCAGCTGATGAATTTTGTCGGTCGAGTAAACAAATTTTCCTAATCTTTCTGTTCAAGCGCCATCTAC | 0.899 |
| GATGATTGTTCTCCCAGCTGATGAATTAGACTAGTCGAGTAAACAAATTTTCCTAATCTTTCTGTTCAAGCGCCATCTAC | 0.351 |
| GATGATTGTTCTCCCAGCTGATGAATTATTTTGGTCGAGTAAACAAATTTTCCTAATCTTTCTGTTCAAGCGCCATCTAC | 0.995 |
| GATGATTGTTCTCCCAGCTGATGAATTTAGCTCGTCGAGTAAACAAATTTTCCTAATCTTTCTGTTCAAGCGCCATCTAC | 0.607 |
| GATGATTGTTCTCCCAGCTGATGAATTTAGGAGTTCGAGTAAACAAATTTTCCTAATCTTTCTGTTCAAGCGCCATCTAC | 0.485 |
| GATGATTGTTCTCCCAGCTGATGAATTAGGCTTTTCGAGTAAACAAATTTTCCTAATCTTTCTGTTCAAGCGCCATCTAC | 2.23 |
| GATGATTGTTCTCCCAGCTGATGAATTGCGCTGGTCGAGTAAACAAATTTTCCTAATCTTTCTGTTCAAGCGCCATCTAC | 1.19 |
| GATGATTGTTCTCCCAGCTGATGAATTCTGCCTCTCGAGTAAACAAATTTTCCTAATCTTTCTGTTCAAGCGCCATCTAC | 5.87 |
| GATGATTGTTCTCCCAGCTGATGAATTCAAGCCGTCGAGTAAACAAATTTTCCTAATCTTTCTGTTCAAGCGCCATCTAC | 0.451 |
| GATGATTGTTCTCCCAGCTGATGAATTAGGAAGGTCGAGTAAACAAATTTTCCTAATCTTTCTGTTCAAGCGCCATCTAC | 0.23 |

| Sequence | binding signal (RPM ratio (pull-down/input)) |
| --- | --- |
| GATGATTGTTCTCCCAGCTGATGAATTCATACGCTCGAGTAAACAAATTTTCCTAATCTTTCTGTTCAAGCGCCATCTAC | 0.421 |
| GATGATTGTTCTCCCAGCTGATGAATTGTTACTCTCGAGTAAACAAATTTTCCTAATCTTTCTGTTCAAGCGCCATCTAC | 0.89 |
| GATGATTGTTCTCCCAGCTGATGAATTACTGTCATCGAGTAAACAAATTTTCCTAATCTTTCTGTTCAAGCGCCATCTAC | 0.598 |
| GATGATTGTTCTCCCAGCTGATGAATTCGTCTATTCGAGTAAACAAATTTTCCTAATCTTTCTGTTCAAGCGCCATCTAC | 1.17 |
| GATGATTGTTCTCCCAGCTGATGAATTAAGCTGCTCGAGTAAACAAATTTTCCTAATCTTTCTGTTCAAGCGCCATCTAC | 0.527 |
| GATGATTGTTCTCCCAGCTGATGAATTGCGTCGATCGAGTAAACAAATTTTCCTAATCTTTCTGTTCAAGCGCCATCTAC | 0.787 |
| GATGATTGTTCTCCCAGCTGATGAATTGTTTATCTCGAGTAAACAAATTTTCCTAATCTTTCTGTTCAAGCGCCATCTAC | 6.57 |
| GATGATTGTTCTCCCAGCTGATGAATTCGCGCACTCGAGTAAACAAATTTTCCTAATCTTTCTGTTCAAGCGCCATCTAC | 0.646 |
| GATGATTGTTCTCCCAGCTGATGAATTCATATTATCGAGTAAACAAATTTTCCTAATCTTTCTGTTCAAGCGCCATCTAC | 0.831 |
| GATGATTGTTCTCCCAGCTGATGAATTTTCAGGTTCGAGTAAACAAATTTTCCTAATCTTTCTGTTCAAGCGCCATCTAC | 0.214 |
| GATGATTGTTCTCCCAGCTGATGAATTAGTAATATCGAGTAAACAAATTTTCCTAATCTTTCTGTTCAAGCGCCATCTAC | 0.74 |
| GATGATTGTTCTCCCAGCTGATGAATTGGCCTATTCGAGTAAACAAATTTTCCTAATCTTTCTGTTCAAGCGCCATCTAC | 0.481 |
| GATGATTGTTCTCCCAGCTGATGAATTGTGATCTTCGAGTAAACAAATTTTCCTAATCTTTCTGTTCAAGCGCCATCTAC | 1.11 |
| GATGATTGTTCTCCCAGCTGATGAATTATCCGTATCGAGTAAACAAATTTTCCTAATCTTTCTGTTCAAGCGCCATCTAC | 0.372 |
| GATGATTGTTCTCCCAGCTGATGAATTACCAAGGTCGAGTAAACAAATTTTCCTAATCTTTCTGTTCAAGCGCCATCTAC | 0.177 |
| GATGATTGTTCTCCCAGCTGATGAATTCACGATGTCGAGTAAACAAATTTTCCTAATCTTTCTGTTCAAGCGCCATCTAC | 0.352 |
| GATGATTGTTCTCCCAGCTGATGAATTGGACCAATCGAGTAAACAAATTTTCCTAATCTTTCTGTTCAAGCGCCATCTAC | 0.296 |
| GATGATTGTTCTCCCAGCTGATGAATTGGATGGATCGAGTAAACAAATTTTCCTAATCTTTCTGTTCAAGCGCCATCTAC | 0.356 |
| GATGATTGTTCTCCCAGCTGATGAATTCAGGCAGTCGAGTAAACAAATTTTCCTAATCTTTCTGTTCAAGCGCCATCTAC | 0.389 |
| GATGATTGTTCTCCCAGCTGATGAATTTGGAGCTTCGAGTAAACAAATTTTCCTAATCTTTCTGTTCAAGCGCCATCTAC | 0.353 |
| GATGATTGTTCTCCCAGCTGATGAATTTGGCGTCTCGAGTAAACAAATTTTCCTAATCTTTCTGTTCAAGCGCCATCTAC | 3.82 |

| Sequence | binding signal (RPM ratio (pull-down/input)) |
| --- | --- |
| GATGATTGTTCTCCCAGCTGATGAATTCTAAGGGTCGAGTAAACAAATTTTCCTAATCTTTCTGTTCAAGCGCCATCTAC | 0.213 |
| GATGATTGTTCTCCCAGCTGATGAATTAACTTTATCGAGTAAACAAATTTTCCTAATCTTTCTGTTCAAGCGCCATCTAC | 0.445 |
| GATGATTGTTCTCCCAGCTGATGAATTAAGTAAGTCGAGTAAACAAATTTTCCTAATCTTTCTGTTCAAGCGCCATCTAC | 0.454 |
| GATGATTGTTCTCCCAGCTGATGAATTCCCCCTCTCGAGTAAACAAATTTTCCTAATCTTTCTGTTCAAGCGCCATCTAC | 0.229 |
| GATGATTGTTCTCCCAGCTGATGAATTGCTGCCGTCGAGTAAACAAATTTTCCTAATCTTTCTGTTCAAGCGCCATCTAC | 0.73 |
| GATGATTGTTCTCCCAGCTGATGAATTGAGGTGGTCGAGTAAACAAATTTTCCTAATCTTTCTGTTCAAGCGCCATCTAC | 0.405 |
| GATGATTGTTCTCCCAGCTGATGAATTATGATTTTCGAGTAAACAAATTTTCCTAATCTTTCTGTTCAAGCGCCATCTAC | 1.8 |
| GATGATTGTTCTCCCAGCTGATGAATTTTAGCATTCGAGTAAACAAATTTTCCTAATCTTTCTGTTCAAGCGCCATCTAC | 5.97 |
| GATGATTGTTCTCCCAGCTGATGAATTCTTGCTTTCGAGTAAACAAATTTTCCTAATCTTTCTGTTCAAGCGCCATCTAC | 0.735 |
| GATGATTGTTCTCCCAGCTGATGAATTCCAGACGTCGAGTAAACAAATTTTCCTAATCTTTCTGTTCAAGCGCCATCTAC | 0.227 |
| GATGATTGTTCTCCCAGCTGATGAATTCGCTGGGTCGAGTAAACAAATTTTCCTAATCTTTCTGTTCAAGCGCCATCTAC | 0.495 |
| GATGATTGTTCTCCCAGCTGATGAATTGTCTCGATCGAGTAAACAAATTTTCCTAATCTTTCTGTTCAAGCGCCATCTAC | 0.345 |
| GATGATTGTTCTCCCAGCTGATGAATTGGGATAATCGAGTAAACAAATTTTCCTAATCTTTCTGTTCAAGCGCCATCTAC | 0.392 |
| GATGATTGTTCTCCCAGCTGATGAATTCGTCGGGTCGAGTAAACAAATTTTCCTAATCTTTCTGTTCAAGCGCCATCTAC | 0.574 |
| GATGATTGTTCTCCCAGCTGATGAATTGATAGGTTCGAGTAAACAAATTTTCCTAATCTTTCTGTTCAAGCGCCATCTAC | 0.509 |
| GATGATTGTTCTCCCAGCTGATGAATTATCAATTTCGAGTAAACAAATTTTCCTAATCTTTCTGTTCAAGCGCCATCTAC | 0.375 |
| GATGATTGTTCTCCCAGCTGATGAATTAGACTTGTCGAGTAAACAAATTTTCCTAATCTTTCTGTTCAAGCGCCATCTAC | 0.529 |
| GATGATTGTTCTCCCAGCTGATGAATTCGTAACGTCGAGTAAACAAATTTTCCTAATCTTTCTGTTCAAGCGCCATCTAC | 0.534 |
| GATGATTGTTCTCCCAGCTGATGAATTCATTTCCTCGAGTAAACAAATTTTCCTAATCTTTCTGTTCAAGCGCCATCTAC | 0.768 |
| GATGATTGTTCTCCCAGCTGATGAATTTGACATGTCGAGTAAACAAATTTTCCTAATCTTTCTGTTCAAGCGCCATCTAC | 1.81 |
| GATGATTGTTCTCCCAGCTGATGAATTAAAATCATCGAGTAAACAAATTTTCCTAATCTTTCTGTTCAAGCGCCATCTAC | 0.424 |
